Assay results: PubChem BioAssay (NCI)
“And” between values parts separate entries of the source, which are not always exact repeats. Equal values may be shown once.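 Where inhibition never reached the appropriate level, the endpoint shown equals the highest concentration tested. Otherwise, values were interpolated linearly from a five-concentration, 48-hour dose response in 96-well plates. At the GI50, growth is halved. Definition used: TGI = concentration required for complete inhibition of growth.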

tested on: NCI-H322M lung; experiment: NCI anticancer screen, dose series, 48 h

Structure (SMILES)	GI50	TGI
COc1ccc2c(c1)O/C(=C\c1cccc(OCC(=O)Nc3nc4ccccc4s3)c1)C2=O	> 94.4 µM	> 100 µM
O=[N+]([O-])c1ccccc1S(=O)c1ccccc1 (configuration not stated)		> 100 µM
CN(C(=O)c1ccc(F)cc1C(F)(F)F)C1CCN(c2nnc(-c3ccnn3C)c3ccccc23)CC1	> 83.1 µM	> 100 µM
CO/C(=N\N=C(/C)C(F)(F)F)c1ccncc1		> 100 µM
CCCCOC1CC2(c3ccc(OC)cc3)C(=O)c3ccccc3N2O1 (configuration not stated)		> 100 µM
COc1cc2c(cc1OC)C1c3ccccc3C(C#N)(C2)N(C(=O)c2ccccc2)C1O (configuration not stated)		> 100 µM
Cn1cc(-c2cc3c(Nc4ccc(CC(=O)Nc5cc(C(C)(C)C)on5)cc4)ncnc3[nH]2)cn1	0.637 µM and 0.422 µM	3.13 µM and 2.7 µM
COc1cc(-c2c3c(cn2S(=O)(=O)c2ccccc2)-c2nc(N)sc2CC3)cc(OC)c1OC	7.45 µM	> 100 µM
